# PubChem BioAssay AID2147 (National Center for Advancing Translational Sciences (NCATS), 2009)
# In all, about 230,000 compounds went through this assay and about 3,600 (1.6%) were called active. Inconclusive means that the source gave no clear call. Such entries were picked first, then a sample of the others. Calls come from the whole dose curve; as a rule, active = well fitted inhibition curve with a large enough effect (not every such curve was filed as active); inconclusive = small, poorly fitted or top-dose-only effect, or another doubt; inactive = no such curve, though single readings can be large or run the other way. Potencies of inconclusive entries are doubtful fits and often do not repeat.
# Biological target: Lysine-specific demethylase 4E (Homo sapiens) (UniProt B2RXH2)
# Assay: qHTS Assay for Inhibitors of Human Jumonji Domain Containing 2E (JMJD2E)
# Details: JMJD2E catalytic domain, FDH-coupled NADH fluorescence (FDH is formaldehyde dehydrogenase); series mostly up to 57.1 µM; activity change, negative = inhibition: at the top concentration
# Note: nearly all actives have a fitted effect of over 50% in size.
# Potency is the fitted concentration of half-maximal effect; tags give direction and shape of the fitted curve.
# 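Throughout, for activity change, negative = inhibition: 0% = wells with enzyme and -100% = buffer wells without enzyme.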
# Chain of UniProt B2RXH2 (B2RXH2 whole entry, looked up, the tested form may be a part): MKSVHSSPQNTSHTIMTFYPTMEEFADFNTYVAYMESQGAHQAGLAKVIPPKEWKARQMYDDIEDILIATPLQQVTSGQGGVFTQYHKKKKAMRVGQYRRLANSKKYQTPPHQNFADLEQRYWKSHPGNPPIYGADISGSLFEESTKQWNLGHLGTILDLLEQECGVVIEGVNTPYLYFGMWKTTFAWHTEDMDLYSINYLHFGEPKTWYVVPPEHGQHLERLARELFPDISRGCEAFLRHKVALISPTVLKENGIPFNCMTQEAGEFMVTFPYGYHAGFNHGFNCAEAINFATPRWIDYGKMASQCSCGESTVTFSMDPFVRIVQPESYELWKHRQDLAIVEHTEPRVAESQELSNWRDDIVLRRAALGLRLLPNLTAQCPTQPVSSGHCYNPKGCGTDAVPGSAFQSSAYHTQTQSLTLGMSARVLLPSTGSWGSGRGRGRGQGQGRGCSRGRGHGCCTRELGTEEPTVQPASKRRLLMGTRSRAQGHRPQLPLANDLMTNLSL
Compound,Potency,"activity change, negative = inhibition"
C/C(CCN1CCCCc2nc(C)c(C)cc21)=N\OC[C@@H](O)[C@H]1O[C@@H]2OC(C)(C)O[C@@H]2[C@H]1O,"inconclusive: 39.8 µM [inhibitor, single point]",
O=c1cc(-c2ccccc2)[nH]c2ccccc12,"inconclusive: 25.1 µM [inhibitor, single point]",
COc1ccc2nc(N/C(N)=N/C(=S)Nc3c(C)cccc3C)nc(C)c2c1,"inconclusive: 35.5 µM [inhibitor, single point]",
CCn1c(-c2ccc(OC)c(OC)c2)n[nH]c1=S,"inconclusive: 39.8 µM [inhibitor, single point]",
COc1ccc(-c2[nH]ncc2/C=C(/C#N)C(=O)NC2CCCCCC2)cc1,"inconclusive: 35.5 µM [inhibitor, single point]",
CCN(CC)CCCNC(=S)N(Cc1ccco1)Cc1cc2cc3c(cc2[nH]c1=O)OCCO3,"inconclusive: 28.2 µM [inhibitor, partial curve]",
O=C(COc1ccccc1F)Nc1nnc(-c2ccncc2)s1,"inconclusive: 31.6 µM [inhibitor, partial curve]",
NNC(=O)c1[nH]c2ccc(Br)cc2c1-c1ccccc1,"inconclusive: 22.4 µM [inhibitor, single point]",
COCCNc1nc(-c2cc(C)n(CCc3ccc(OC)cc3)c2C)cs1,"inconclusive: 35.5 µM [inhibitor, single point]",
CC(=O)NN1C(=O)c2ccccc2NC1c1ccccn1 (centres undefined),"inconclusive: 28.2 µM [inhibitor, partial curve]",
Cc1ccc2[nH]c(=O)c(CN(Cc3cccnc3)C(=O)c3ccncc3)cc2c1,"inconclusive: 25.1 µM [inhibitor, single point]",
Cc1cc(-c2nc(C)c(-c3nnc(SCC(=O)Nc4cc(Cl)cc(Cl)c4)n3C)s2)no1,"inconclusive: 4.47 µM [inhibitor, full curve]",
CC1CCCC(C)N1C(=O)CSc1nnc(CSc2ncccn2)n1C (centres undefined),,inactive: 5.77%
COC(=O)c1c(-c2ccc(C(C)(C)C)cc2)csc1NC(=O)C1C2CCC(O2)C1C(=O)O (centres undefined),active: 15.8 µM,
CCCn1c(=O)c2[nH]c(-c3ccccc3)nc2n(CCC)c1=O,"inconclusive: 2.82 µM [inhibitor, full curve]",
COc1ccccc1-n1c(CCn2nc(C)c(Br)c2C)n[nH]c1=S,,inactive: 12.1%
CCCc1nnc(NC(=O)CN2CCOCC2)s1,"inconclusive: 39.8 µM [inhibitor, single point]",

Compound,Potency,"activity change, negative = inhibition"
CC(C)c1ccc(N(C(=O)c2cc3ccccc3oc2=O)C2C=CS(=O)(=O)C2)cc1 (centres undefined),"inconclusive: 31.6 µM [inhibitor, single point]",
Nc1cc(N)c(OCC(F)(F)F)cc1OCC(F)(F)F,"inconclusive: 0.0631 µM [inhibitor, full curve]",
Cc1[nH]c2ccccc2c1/C=N/NC(=O)c1cc(C(C)(C)C)[nH]n1,"inconclusive: 39.8 µM [inhibitor, single point]",
COc1cc(C(=O)Nc2nc3ccccc3s2)ccc1OCc1c(C)noc1C,"inconclusive: 35.5 µM [inhibitor, single point]",
COc1cccc2cccc(/C=N/n3cnnc3)c12,"inconclusive: 12.6 µM [inhibitor, partial curve]",
C=CCn1c(C)cc(C2=NNC(=Nc3ccc(C)cc3)SC2)c1C,,inactive: -6.31%
O=C(Oc1ccc2c(c1)OCO2)c1cc2c(s1)CCC2,"inconclusive: 39.8 µM [inhibitor, single point]",
Cn1c(=O)c(C(=O)CN2CCCc3ccccc32)c(N)n(Cc2ccccc2)c1=O,"inconclusive: 1.41 µM [inhibitor, full curve]",
CN(C)c1ccc(-c2ccc([C@H]3[C@@H]4C=CCC[C@@]4(C)C(=O)N3Cc3ccccc3)c(F)c2)cc1,"inconclusive: 3.98 µM [inhibitor, partial curve]",
Cc1ccc(CNc2ncc(-c3ccc4c(c3)OCO4)n2C)cc1,"inconclusive: 28.2 µM [inhibitor, single point]",
CC1CCCCN1C(=O)CSc1nc2cc3c(cc2c(=O)n1Cc1ccc2c(c1)OCO2)OCO3 (centres undefined),,inactive: 4.09%
Cc1ccc(/C=C/C(=O)Nc2ccc([N+](=O)[O-])cc2)o1,,inactive: 1.18%
Cc1ccccc1/C=N/NC(=O)Cn1cnc([N+](=O)[O-])n1,,inactive: -2.38%
O=c1[nH]c2ccccc2nc1/C=C/c1ccc(O)cc1,active: 15.8 µM,
COC(=O)Cc1nc2ccccc2[nH]1,"inconclusive: 10 µM [inhibitor, partial curve]",
CC1=C(C(=O)Nc2ccccc2F)C(c2ccsc2)C2=C(CC(C)(C)CC2=O)N1 (centres undefined),"inconclusive: 25.1 µM [inhibitor, partial curve]",
Cn1nnc2cc(C(=O)N3CCSCC3)ccc21,,inactive: 5.87%
